The source gives no read counts; variants with many changes may rest on few reads.
B1: LINE1-mini (parent)
chain: GGCAGAGCUCAACACAGCGUGGCAAAGUGGCUGUGGCUAGACUGCC

Variants of: B1
Assay: self-cleavage, relative activity (ratio to wild type); higher = more cleavage; in vitro, sequencing; the parent is a self-cleaving ribozyme

Variant | self-cleavage
GGCAGACCUCAAAUCAGCGUGGCAAAGUGGCUAUGGCUAGACUGUC | 0.2
GGCAGACCUCAACACAGCGUGGCAAAGUGGCUGAGGCUUGACUGCC | 0
GGCAGACCUCAACACAGCGUGGUCAAGUGGCUGUGGCUAGACUGCC | 0.08
GGCAGACCUCAACACAGCGUGGCAAAGUGACCGUGGCUAGACUGCC | 0.01
GGCAGACCUCAAAACAGCGCGGCAAACUGGCUGUGUCUAGACUGCC | 0.02
GGCAGACCUCAAAAAAGGGUAGCAAAGUGGCUGUGGCUAGACUGUA | 0.02
GGCAGACCUCAACACAGCGUGGCAAAGUAGCUGUGGUUAGACUGCC | 0.05
GGCAGAUCUCUACACAACGUGGCAAAGUGGCUGCGGCUAGACAGCA | 0.01
GGCAGACCUCAACACAGCGAGGCAAAGUGGCUGCGGCUAGACUACC | 0.04
GGCAGACCUCAAGACAGCGUAGCAAAGUGCCUGUGGCUAGACUGCC | 0.41
GGCAGACCACAACACAGCGUAGCAAAGUGGAUAUGGCUCGAUUGCC | 0.09
GGCAGACCUCAACACAGCGUGGCAAAGGGGCUGUGGGUAGACUGCC | 0
GGCAGACCUCAACAUAGCGUUGCAAAGUGGCUGUGGCUAGACUGCC | 0.08
GGCAGACCUCAACACAGCGUGGCAAAGUGGCUGUGCCUAGGCUGCC | 0.07
GGCAGACCUCAACAUAGCGUGGCAAUGUGGCUGUGGCUAGACUGCC | 0.02
GGCAGAUCUCUACACAGCGUGGCAAAGUGGCUGUGGCUAGCCUGCC | 0.04
GGCAGACCUCAAUACAGCGUGGCAAAGUGGCUGUGGCUAGGCUGCC | 0.03
GGCAGACCUCAACACAGCCUGCCAAAGUGGCUGUGGCUAGACUUCU | 0.34
GGCAGACCUCAACAUAGCGUAGCAAAGUGGGUGUGGCUAGACUGCC | 0.1

Variant | self-cleavage
GGCAGACCUCAACACAGCGUGGCAAAGUGGCUUUGGCUCGACUGCC | 0
GGCAGACCUCAACACAGCGUGGCAAAGUGGCUCUGGCUAGAGUGCC | 0.08
GGCAGACCUCAACACAGCGUGGCAAAGUGGCUGCGGCUAGCCUGCC | 0.05
GGCAGACCUCAACACAGCGUUGCAAAGUGGCUGGGGCUAGACUGCC | 0.01
GGCAGACCUCAACACACCGUGGCAAAGUGGCUGUCGUUAGACUGCC | 0.02
GGCAGACCUCAACACAGCGUGGCAAAGUGGUUCUGGCUAUACUGCC | 0.07
GGCAGACCUCAACACAGCGUGGCAAAGUGGCUGAGGCUAGGCUGCC | 0.01
GGCAGAUCUCCACCCAGCGUGGCAAAGUGGCUGUCGCUAGACGGCC | 0
GGCAGAUCUCAGCACAGCGUGGCAAAGUGGCUGUGGCUAGACUGCU | 0.03
GGCAGACCUCAACACAGCGUGGCAAAGUCGGUGUGGGUAGACUGAC | 0.01
GGCAGACCACAACACAGGGUGGCAAAGUGGCUGUGGCUAGACUGCC | 0.02
GGCAGACCUCAACACAGCGUGGCAAAAUGGCUGUGUCUAGACUGCC | 0.06
GGCAGACCUCAACACAGAGUUGCAAAGUGGCUGUGGCUAGACUGCC | 0.08
GGCAGACCUCAACACAGCGUAGCAAAGUUGAAGUGGCUACACUGCC | 0.04
GGCAGACCUGAACCCAGCGUGGCAAAGUGGCUGGGGCUAGACUUCC | 0
GGCAGAUCUCGACACAGCGUGCCAAAGUGGCGGUGGCUAGACUGCC | 0.02
GGCAGACCUCAAGACCGCGUGGCAAAGUGGCUGUGGCUAGACUGCC | 0.06
GGCAGACCCUAACACAGCGUGGCAAAGUGGCUGUGGCUAGACUGCC | 0.02
GGCAGACCUUAACACAGCGUUGCAAAGUGGCUUUGGCUAGAGUACC | 0.01

Variant | self-cleavage
GGCAGACCUCAACACAGCGUUGUAAAGCGGCUGUGGCCAGACUGCC | 0.08
GGCAGACCUCAACACAGCAAGUCAAAGUGGCUGUGGCUAGACUGAC | 0.06
GGCAGAUCUCAGCACUGCGUGGCAGUGUGGCUGCGGCUAGACUGCC | 0.01
GGCAGACCCCAACACAGCGUGGCAAAGUUGCUGUGGCUAGACUGCC | 0.01
GGCAGAUCUCAGUACAGCGUGGCAAAGUGGCUGUGGCUAGAUUGCC | 0.01
GGCAGACCUCAACAUAGAUUGGCAAAGUGGCUGUGGCUAGACUGCC | 0.02
GGCAGACCUCAACACAGCGGGGCAAAGUGGCUGUGGCUAGACUGCA | 0.08
GGCAGACCUCAACACAGCGUGGCAAAGAGGAUGUGAUUAUACUGCC | 0.01
GGCAGACCUCAACACAGUGUGGCAAAGUGGCUGUGCCUAGACUGCC | 0.2
GGCAGACCUCAACACAACGUGGCAAAGUGGCUGUGGCUAGACUGCG | 0.05
GGCAGAUCUCUACAUAGCGCGCCAAAUUGGCGGUGGCUAGACUGCC | 0.05
GGCAGACCUCAACACAGCGACGCAAAGUGGCUGUGGCUACACUGCC | 0
GGCAGACCUCAACACAGCGUUGCAAGGUGGCUGUGGCUAGACUGCC | 0
GGCAGACCGCAACACAGCGUGGCAAAGUUGCUGUGGCUAGACUGCC | 0.13
GGCAGACCUCAAUACAGCGCGGCAAAGUGGCUGUGGCUAGACUGCC | 0.04
GGCAGACCUCAACAGUGCGUGGAAAAGUGGCUGUGGCUAGACUGCC | 0.02
GGCAGAUCUCCAUACAGCGUGGCAAAGUGGCUGUGGCUAGACUGCC | 0.02
GGCAGACCUCAAAACAGCUUGGCAAUGUGGCUGUGGCUAUACGGCC | 0.04

— the RNAGym collection of RNA variant scans (doi:10.7554/elife.90254)
